Source: the supplement of paper PMC9174493
This is one part of the list. Single values of this set are uncertain. Values with irradiation are relative to irradiated vehicle.

What was measured:
A549-Dual [1] = assay: NF-kB reporter (SEAP) activity, viability-corrected, relative to vehicle (fold change vs vehicle); higher = more activation of STING-IRF / NF-kB immune response reporter; conditions: 10 µM
A549-Dual [2] = assay: ISRE reporter (Lucia luciferase) activity, viability-corrected, relative to vehicle (fold change vs vehicle); higher = more activation of STING-IRF / NF-kB immune response reporter; conditions: 10 µM
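Throughout, for NF-kB reporter (SEAP) activity, viability-corrected, relative to vehicle: viability correction based on the alamar blue assay, with concentrations leaving 10% survival or less dropped.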

Row | SMILES | NF-kB reporter (A549-Dual [1]; irradiation: 8 Gy/4 fr) | NF-kB reporter (A549-Dual [1]; irradiation: none) | ISRE reporter (A549-Dual [2]; irradiation: 8 Gy/4 fr) | ISRE reporter (A549-Dual [2]; irradiation: none)
1 | COC(=O)C1=C(C)NC(C)=C(C(=O)OCCN(C)Cc2ccccc2)C1c1cccc([N+](=O)[O-])c1.Cl (stereo not drawn) [Nicardipine HCl] | 0.649 | 1.46 | 0.636 | 1.73
2 | CC1(C)SC2C(NC(=O)C(c3ccccc3)S(=O)(=O)[O-])C(=O)N2C1C(=O)[O-].[Na+].[Na+] (stereo not drawn) [Sulbenicillin Sodium] | 0.728 | 0.796 | 0.764 | 0.7
3 | CC(=O)NCC(=O)O.CC(=O)NCC(=O)O.N=C(N)c1ccc(N=NNc2ccc(C(=N)N)cc2)cc1 [Diminazene Aceturate] | 0.543 | 0.727 | 0.661 | 1.37
4 | Cl.c1ccc(Nc2ccccc2)cc1 [Diphenylamine Hydrochloride] | 1.16 | 0.97 | 0.963 | 0.637
5 | OC(c1ccccc1)(c1ccccc1)C12CC[N+](CCOCc3ccccc3)(CC1)CC2.[Br-] [Umeclidinium bromide] | 0.862 | 1.52 | 0.907 | 0.881
6 | Cl.Nc1c(Br)cc(Br)cc1CNC1CCC(O)CC1 (stereo not drawn) [Ambroxol HCl] | 0.857 | 0.941 | 0.994 | 0.76
7 | CCCCCC(C)N (stereo not drawn) [2-Aminoheptane] | 1.52 | 0.806 | 1.57 | 0.838
8 | NS(=O)(=O)c1cc2c(cc1C(F)(F)F)NC(Cc1ccccc1)NS2(=O)=O (stereo not drawn) [Bendroflumethiazide] | 0.957 | 1.11 | 0.151 | 0.354
9 | CN(C)CCOC(=O)COc1ccc(Cl)cc1.Cl [Meclofenoxate (Centrophenoxine) HCl] | 0.442 | 0.577 | 0.488 | 0.478
10 | CC(C)CN(CC(O)C(Cc1ccccc1)NC(=O)OC1CCOC1)S(=O)(=O)c1ccc(N)cc1 (stereo not drawn) [Amprenavir] | 0.704 | 1.15 | 0.726 | 0.942
11 | CCOC(=O)c1ccc(N)cc1 [Benzocaine] | 0.849 | 0.823 | 0.767 | 0.858
12 | O=c1ccn(C2OC(COP(=O)([O-])OP(=O)([O-])OP(=O)([O-])O)C(O)C2O)c(=O)[nH]1.[Na+].[Na+].[Na+] (stereo not drawn) [UTP, Trisodium Salt] | 0.869 | 0.761 | 0.792 | 0.678
